From the supplement of paper PMC12645437, “Orthogonal IMiD-Degron Pairs Induce Selective Protein Degradation in Cells” (ACS Chemical Biology, 2025)
Some of the results follow.

B1: Q9UKT9 (peptide)
chain: FFCNQCGHAFTQKGNLLRHIKL
B2: Q9UKT9 (peptide)
chain: FGCEVCGARFTQKGNLLRHIKL
B3: Q9UKT9 (peptide)
chain: FQCNQCGALFTQKGNLLRHIKL
B4: Q9UKT9 (peptide)
chain: FQCEICGHLFTQKGNLLRHIKL
B5: Q9UKT9 (peptide)
chain: FYCPQCGANFTQKGNLLRHIKL
B6: Q9UKT9 (peptide)
chain: LACNQCGFVCTQKGNLLRHIKL
B7: Q9UKT9 (peptide)
chain: FYCPICGRKFTQKGNLLRHIKL
B8: Q9UKT9 (peptide)
chain: FECDQCGAFFTQKGNLLRHIKL
B9: Q9UKT9 (peptide)
chain: FSCEQCGAVFTQKGNLLRHIKL
B10: Q9UKT9 (peptide)
chain: FFCPICGAFFTQKGNLLRHIKL
B11: Q9UKT9 (peptide)
chain: LCCNQCGFDCTQKGNLLRHIKL
B12: Q9UKT9 (peptide)
chain: FKCDQCGAVFTQKGNLLRHIKL
B13: Q9UKT9 (peptide)
chain: FFCEVCGAGFTQKGNLLRHIKL
B14: Q9UKT9 (peptide)
chain: FHCNQCGHAFTQKGNLLRHIKL
B15: Q9UKT9 (peptide)
chain: FACPQCGAMFTQKGNLLRHIKL
B16: Q9UKT9 (peptide)
chain: FICNQCGAIFTQKGNLLRHIKL
B17: Q9UKT9 (peptide)
chain: FHCPICGRYFTQKGNLLRHIKL
B18: Q9UKT9 (peptide)
chain: FTCNICGAHFTQKGNLLRHIKL
B19: Q9UKT9 (peptide)
chain: FLCNQCGHWFTQKGNLLRHIKL
B20: Q9UKT9 (peptide)
chain: FYCPQCGARFTQKGNLLRHIKL
B21: Q9UKT9 (peptide)
chain: FVCNVCGAHFTQKGNLLRHIKL
B22: Q9UKT9 (peptide)
chain: LKCPICGFQCTQKGNLLRHIKL
B23: Q9UKT9 (peptide)
chain: FWCEQCGADFTQKGNLLRHIKL
B24: Q9UKT9 (peptide)
chain: LECNQCGFFCTQKGNLLRHIKL
B25: Q9UKT9 (peptide)
chain: LLCNQCGFLCTQKGNLLRHIKL
B26: Q9UKT9 (peptide)
chain: FECNQCGHHFTQKGNLLRHIKL
B27: Q9UKT9 (peptide)
chain: FHCPICGRMFTQKGNLLRHIKL
B28: Q9UKT9 (peptide)
chain: FQCPICGHQFTQKGNLLRHIKL
B29: Q9UKT9 (peptide)
chain: FKCPVCGAEFTQKGNLLRHIKL
B30: Q9UKT9 (peptide)
chain: FGCNQCGRPFTQKGNLLRHIKL
B31: Q9UKT9 (peptide)
chain: LTCNQCGFACTQKGNLLRHIKL
B32: Q9UKT9 (peptide)
chain: LHCPICGFVCTQKGNLLRHIKL
B33: Q9UKT9 (peptide)
chain: FCCPVCGAYFTQKGNLLRHIKL
B34: Q9UKT9 (peptide)
chain: FSCEVCGACFTQKGNLLRHIKL
B35: Q9UKT9 (peptide)
chain: LCCPICGFPCTQKGNLLRHIKL
B36: Q9UKT9 (peptide)
chain: LQCPICGFPCTQKGNLLRHIKL
B37: Q9UKT9 (peptide)
chain: FVCPICGHGFTQKGNLLRHIKL
B38: Q9UKT9 (peptide)
chain: LMCNQCGFICTQKGNLLRHIKL
B39: Q9UKT9 (peptide)
chain: FYCDQCGADFTQKGNLLRHIKL
B40: Q9UKT9 (peptide)
chain: FGCPICGHFFTQKGNLLRHIKL
B41: Q9UKT9 (peptide)
chain: FGCDQCGAFFTQKGNLLRHIKL
B42: Q9UKT9 (peptide)
chain: FQCPQCGAQFTQKGNLLRHIKL
B43: Q9UKT9 (peptide)
chain: FFCEVCGAYFTQKGNLLRHIKL
B44: Q9UKT9 (peptide)
chain: FRCPICGADFTQKGNLLRHIKL
B45: Q9UKT9 (peptide)
chain: LDCPICGFDCTQKGNLLRHIKL
B46: Q9UKT9 (peptide)
chain: FKCEQCGASFTQKGNLLRHIKL
B47: Q9UKT9 (peptide)
chain: FLCNQCGRYFTQKGNLLRHIKL
B48: Q9UKT9 (peptide)
chain: FECPICGRFFTQKGNLLRHIKL
B49: Q9UKT9 (peptide)
chain: LTCPICGFWCTQKGNLLRHIKL
B50: Q9UKT9 (peptide)
chain: FSCPQCGASFTQKGNLLRHIKL

Molecular target: no compound (DMSO)
Experiment: log2 fold change of degron read counts, EGFP-low vs EGFP+ sorted cells; higher = lower degron-EGFP level without compound (poor expression or instability)
Details: compound: DMSO control; 18 h
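Also: jurkat cells carrying a lentiviral library of mutant zinc finger degrons fused to EGFP plus mCherry, mCherry+ cells FACS sorted, degron abundance counted by next-generation sequencing.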

| Sequence | log2 fold change of degron read counts |
| --- | --- |
| B1 | 0.543 |
| B2 | -0.759 |
| B3 | -0.179 |
| B4 | -1.35 |
| B5 | -0.106 |
| B6 | -0.069 |
| B7 | -2.89 |
| B8 | -0.908 |
| B9 | -2.04 |
| B10 | 1.46 |
| B11 | -0.289 |
| B12 | -1.73 |
| B13 | -1.13 |
| B14 | -0.253 |
| B15 | -0.558 |
| B16 | -0.0632 |
| B17 | -0.797 |
| B18 | -0.831 |
| B19 | 1.19 |
| B20 | -0.333 |
| B21 | -0.668 |
| B22 | 0.469 |
| B23 | -1.05 |
| B24 | 0.418 |
| B25 | 1.16 |

| Sequence | log2 fold change of degron read counts |
| --- | --- |
| B26 | -0.622 |
| B27 | -1.19 |
| B28 | -0.0717 |
| B29 | -0.641 |
| B30 | 1.11 |
| B31 | 0.316 |
| B32 | 0.756 |
| B33 | 0.488 |
| B34 | -0.881 |
| B35 | 1.69 |
| B36 | 1.65 |
| B37 | -0.554 |
| B38 | 1.37 |
| B39 | -1.55 |
| B40 | 0.91 |
| B41 | 0.0549 |
| B42 | -0.784 |
| B43 | 0.0203 |
| B44 | 0.305 |
| B45 | 0.521 |
| B46 | -2.68 |
| B47 | 0.565 |
| B48 | 0.528 |
| B49 | 1.32 |
| B50 | -2.44 |
